Read counts are not given, so values of variants with three or more changes are uncertain.
B1: LINE1-full (parent)
chain: UACGUAGGUGGUUUUCCCCUGAUAGUGCUAAGGGGGCCUGGAAGUUUGGACUGGGCAGAGCUCAACACAGCGUGGCAAAGUGGCUGUGGCUAGACUGCCUCUCUGGAUUCCUCGUCACUCAGCAGGGCAUCUCUGAGAGAAAUGCC

Variants of: B1
Assay: self-cleavage, relative activity (ratio to wild type); higher = more cleavage; in vitro, sequencing; the parent is a self-cleaving ribozyme

Row | Variant | self-cleavage
1 | U52A G60A U115G A136U A140G | 0.04
2 | U1C A64U A78G C95U A129U | 0.04
3 | C3U U47A U81C | 1.19
4 | G10A A59G U96A G105A U115A | 0
5 | U12C A64G A69U A124G | 0.16
6 | G35U U73A A121G | 1.87
7 | G34A A69U A129U | 0.06
8 | U12C A42U U47G U62C U85C U91C | 0
9 | U87C A121U U143C | 0.32
10 | U134A A138U C146U | 1.83
11 | G40A U81A U104G A121G | 0.86
12 | U5C A24G A43G A78U U85C | 0
13 | C116U A129G A138G | 1.45
14 | U5C U20A U52C U73A U104A | 0.77
15 | U46A U47A G82A | 1.52
16 | U15C U39C A69U A141U U143C | 0.13
17 | A2G A65G U96C U109A | 0.42
18 | U13C A78G C116U U132C | 1.62
19 | A50G U87C U102C | 0
20 | A42U G89A U143A | 0.03
21 | C3U U13C G27A U112C U132C A141G | 1.25
22 | G34A U85C C145U | 0.12
23 | U13C C28A A42G U81C | 1.11
24 | U15C A42G C61U A78G | 0.05

Row | Variant | self-cleavage
25 | A69U G86A A142G | 0.03
26 | A24G A43G U85C | 0
27 | A43G U46C A57U A138G | 0.28
28 | A42G A43U A142G | 1.67
29 | C103U U134C A141G | 0.72
30 | U46A A78G U143C | 1.05
31 | U20C U45A A64U A78C | 0.99
32 | U20C U102C A107G | 1.77
33 | U13A U14A U109A | 0.6
34 | U81C U112C A124U | 1.31
35 | U12C U13C U45C U62C | 0
36 | U15C C38U U47A | 1.12
37 | C19U U104C U130C | 0.96
38 | G74A A78G U96C | 0
39 | U20C U100C G127A | 1.96
40 | A59G G72C U85G G114A U130C | 0
41 | U12C U23C U62C A64C U143C | 0.18
42 | A22U A67G U112A C118U | 0.39
43 | A107G A129G A141G | 0.3
44 | G35A U85C A117C A129U | 0.15
45 | U1C G4A U47A | 0.67
46 | U46C U52C A67G | 1.31
47 | U46A U62C A138G | 0.05
48 | C56A U104A A129G A136G U143C | 0.04

Row | Variant | self-cleavage
49 | U104C A138G A142G | 1.98
50 | A6G A69G G75U U119C | 0.98
51 | U46C C56U U81A U96C | 0.03
52 | C37G A107G U134A A136U U143C | 0.95
53 | U12G G33A A57G A121G | 1.28
54 | A42G A65G G137U | 0.18
55 | U12G U81C G126A | 1.53
56 | U12G C19U C118U | 2.57
57 | G93A U108A A138G | 0.03
58 | U26C U47A U100C A121U U143C | 2.25
59 | U45C A69C U85C | 0.57
60 | U20C A43U U52A A77G | 2.32
61 | A67U U96C U108C | 0.25
62 | U39A U52C A65C U112C A138G | 0
63 | U20G A67U U102C U143C | 0.22
64 | U20C G32A U104A | 0.64
65 | A50G U109C G114A A136G A138G | 0.61
66 | U29C U46C A78G U100C | 0.92
67 | U23C A69G A117G | 2.3
68 | U47C A94U C131A A138G | 0.47
69 | U5C A24U U26C C113A | 1.04
70 | U39C U81C U130A | 0.42
71 | U81A U96C U130C | 0
72 | A65G A69G U104C | 0

Row | Variant | self-cleavage
73 | A6G A22G A78G | 1.84
74 | C38U A92G U102C | 0.09
75 | A65G U115A U132A | 0.04
76 | G86A A92U C116A | 0.07
77 | G21A U85C U112C A142G | 0.1
78 | A59G G93U A107U A136G | 0.02
79 | G86A U102C A142G | 0.06
80 | U45C A78G U134C | 1.92
81 | U1C G21A U26A | 0.44
82 | A78G U81A U109A | 0.14
83 | C51U G83A U91C | 0.21
84 | U12C A24U U26C A42G A50G C76U | 1.72
85 | G10A G35U U96C | 0
86 | U12A U15C A79U | 0.46
87 | U23C U96C U134A | 0.13
88 | A43G A64G G83C A117G | 0.3
89 | U15A U26C U115C | 1.93
90 | U13C U52C U115A A138G | 1.7
91 | G4A A31U U45C U108C U132C | 1.53
92 | A2G U26A U132C | 1.84
93 | U9A U13C A65G C113U U119C C131U | 0.11
94 | U5C U14C C146U | 1.13
95 | U14A U23C U96C A129G U132C | 0.32
96 | A67U G83A U132C | 0.04

Row | Variant | self-cleavage
97 | G8U U81A U102C | 2.93
98 | U73A A78G C128U G144U | 0.47
99 | A31U U39A G53U A92U U100C | 0.22
100 | U62C U100C U102C | 0
101 | U5A A22G G144A | 1.03
102 | U9C A64U U112A | 0.13
103 | A77U A79G A136U | 1.33
104 | G10A U47C A64G A124G | 0.54
105 | A77U A107G G122A | 2.05
106 | A22U U91C C101U | 0.24
107 | A67U U87C A107G | 0.12
108 | U26C U29C C38U U85A | 0.32
109 | C76U A77G U112C A140G | 1.27
110 | U39A A65U U132C U143C | 0.08
111 | U14C G34U U45A C61A U109C U132A | 0.04
112 | U12C G54A G82A | 1.11
113 | A2G U102C A124G A138U | 1.45
114 | G4A U23C U104A U132C | 0.84
115 | G10A U26A A50C C68A U112C | 0.05
116 | U13A U45C U143C | 0.43
117 | U5A U39C C99U | 0.16
118 | G40U A65G U91G | 0
119 | G53A A65U A94G | 0.06
120 | A77G U119A A142G | 2.6

Row | Variant | self-cleavage
121 | G40A U112C U115C U132A | 0.86
122 | A42G A121G A140C | 2.95
123 | A50U A77G A140G | 1.07
124 | G7C A79G U102C | 0.88
125 | U26A U96C U104C | 0
126 | A22G U52C A77G G83A U134C | 1.49
127 | C19U U20C C66U | 0.03
128 | A59U U96C A138G | 0.25
129 | U87C U100A U104C | 0.12
130 | A24U U104C A138G | 1.91
131 | U14A A79G A117U | 0.62
132 | U29A U46A G144A | 1.3
133 | G54C U109A A138G U143C | 0.28
134 | U15C U20C A77U | 1.86
135 | A79G U112C C131A | 0.48
136 | U23C A78G U104A | 1.07
137 | A2G G21A A142G | 0.76
138 | U9G U12G A78G G80U | 0.67
139 | U73C A79G U134C | 0.89
140 | U108C A117U U134A U143C | 2.51
141 | A57G C71G A78U U81C A142G | 0.08
142 | U9C A59G A117U | 0
143 | U1C U14C U20C A57U A78G G127A | 0.12
144 | U13C U14C U47C A136U | 0

Row | Variant | self-cleavage
145 | U46C A50G A124G G127U | 0
146 | U9A U20C U100A U115C U119C A142G | 1.02
147 | A67G G72A U143C | 0.52
148 | U39C A136G A140G | 1.3
149 | U47A A117G C131A | 1.27
150 | U85A A117G U132A U143A | 0.88
151 | U5A A69U A79G U81C U108C | 0
152 | U52C C66A A67G | 0.13
153 | U13C U15G A50G A79G | 0
154 | U13A A24G U47G U119C A136G | 2.19
155 | A2C U14C A94G | 0.1
156 | A121G A129G A142G | 1.84
157 | U15A U20C U100C A124U | 0
158 | U1A A22U C111U | 1.45
159 | U81A U112C G144C | 2.31
160 | U85C A124G A140G | 0.04
161 | A69G A78G U85A A121C A142G | 0
162 | G60C A65G A67U A138G | 0.05
163 | A67U A92G U112C A138U | 0.1
164 | A2G A92G U143A | 0.17
165 | A43G A50G U143C | 0.42
166 | U12C U47C U85C U104C | 1.31
167 | A2G U13C U134A | 0.54

Source: the RNAGym collection of RNA variant scans (doi:10.7554/elife.90254)
